± gives the standard deviation of the averaged measurements. The list shows a part of the results.
System: PfAP2-G AP2 domain (GST-tagged)
Assay: gcPBM binding intensity (ln(normalized median fluorescence intensity)); higher = stronger DNA binding
In short: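 Plasmodium falciparum DNA-binding domains carrying a GST tag were expressed in E. coli and applied for 1 h, at about 25 μg on average, to an Agilent 4 × 180k array. The array held primer-extended double-stranded 36-bp intergenic genomic probes together with negative controls, and binding took place in 1× PBS with 1% milk, 0.2 mg/ml BSA, 0.5% salmon testes DNA and 0.03% Triton X-100. An Alexa488 anti-GST antibody detected bound protein, and the array was scanned at 488 nm. Binding intensity is taken as the highest Masliner-normalised natural-log median intensity across replicate spots of either probe orientation.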

Sequence	gcPBM binding intensity (ln)
TTCCATCAAAAAATGGGTACACATTATAGAAATATT [XGTACX_site8482]	11.6 ± 0.92
GCATTTTAATAATTATGTACATATATTATTCCTGGT [XGTACX_site3664]	11.3 ± 0.61
ATATTTAAACGATGGTGTACATATATTACAAGTTGT [XGTACX_site1743]	11.4 ± 0.73
ATATAGATCTACACTGCACACATTTTTAACACTGCT [CACACA_site1882]	10.06 ± 0.092
AAAACATACAGATATACACACATATATATATATATA [CACACA_site5091]	9.85 ± 0.085
AAATTATTATCGTTAATATGTATATATGTGCCAAGT [TGCATGCA_negctrl_site557]	10.1 ± 0.18
TATACATATATATATACACACATATATATATATACA [CACACA_site402]	9.8 ± 0.042
ACGCATGTAATTTATACACACATTCTTTTATATTTT [CACACA_site3708]	9.87 ± 0.22
AATCTAATGTAATGCATACACACAACTATCCATCAA [CACACA_site535]	10.01 ± 0.035
CATATATGATATATTAGTACATATATATATATATAT [XGTACX_site1574]	11 ± 0.62
CGATATAAAGATATTAGTACATATGCATGCTTGTCT [XGTACX_site8629]	10.7 ± 0.38
AATATACGAAATTGTGCACACATATATTTATGTATG [CACACA_site1510]	10.5 ± 0.3
TAAAATGAAGGAATATGTACATAAATAAACATATAT [XGTACX_site6266]	11.2 ± 0.63
TTGAAATTAAATGACATACACACTATATTATATATT [CACACA_site3135]	9.72 ± 0.11
AAAAATAAAGTAAAAGCATGCTAGTATATGGAAAAT [TGCATGCA_site486]	9.96
TATAATAATATTTATTGTACAATTAGGTTAATTCAT [XGTACX_site1986]	10.9 ± 0.38
CATATACGCAAACACACACACATATATATATATATA [CACACA_site501]	10.3 ± 0.35
AGGTATATATATTTATGTACTTAAAATGAGAAAATA [XGTACX_site8337]	11.4 ± 0.81
TCTTAAATTTCTTTATGTACATAATTAATATATTTA [XGTACX_site4456]	11.2 ± 0.59
TATATATTATGACCACCACACACCTATACGCATAAC [CACACA_site2447]	11.4 ± 0.81
TATCGTTATATAATATGTACATATAAAATTTAAATT [XGTACX_site1887]	11.3 ± 0.72
AAAATGTATATATAAACATGCACACGTGGTTGTATA [TGCATGCA_site847]	10.29 ± 0.049

Sequence	gcPBM binding intensity (ln)
ATATATATATATATTGTACACACATTTATGCATATA [CACACA_site9055]	11.3 ± 0.57
TGTGGGAATAACCACACACACACACCCATATATATA [CACACA_site5876]	10.1 ± 0.18
AAATGCAAATGATGATGTACATACAAAAATTAAATT [XGTACX_site5323]	11.2 ± 0.69
ATGATAGTATGTATGAGTACGAAAAAAAAAAATTAA [XGTACX_site32]	11 ± 0.62
TTTTCTTAAAAAATCAAACACACATATATATATACA [CACACA_site2297]	9.92 ± 0.16
ATATATATATATATATGTACATATCACTTTAAATAT [XGTACX_site3859]	11.1 ± 0.57
TATAATATGAACAGTACACACAAAATAAATTCGTAT [CACACA_site3586]	11.1 ± 0.67
ATTCAAAATAATAGAATTGTTAAAGTTGTAAATTGA [CACACA_negctrl_site727]	9.72 ± 0.26
ACGTATCAAAAAATTTGTACATATATATATATATAT [XGTACX_site1024]	10.8 ± 0.47
GAACAGAAAAAGAATAGTACATATATATATATATAT [XGTACX_site3700]	10.9 ± 0.73
CTCAAACAATATTATATAATAAAGTACATATATATT [CACACA_negctrl_site446]	11.3 ± 0.86
AAAAATAAATATACATGTACTTAAAATAATCGAATA [XGTACX_site8432]	11.2 ± 1
TATATTTTTATATTTTGTACATATAGTAAATATAAA [XGTACX_site4768]	10.8 ± 0.51
AAAAATATATAAAGAAAAAGAATATAATATAAAATA [GTGCAC_negctrl_site208]	9.64 ± 0.17
ATTGTAGAATTTAATAGTACTCACGAATAAAATAAA [XGTACX_site6280]	11.2 ± 0.59
TATTAAAATATGTCAGTTCTTAAAAAGTTGATGAGT [GTGCAC_negctrl_site77]	10 ± 0.14
TATGATTCATAATAGTGTACGTAAAAATTGACTAGA [XGTACX_site5376]	11.7 ± 1
AAAAAAAAAGTATTATGTACATAAAAATAAAAAAAT [XGTACX_site4166]	11.2 ± 0.69
GTTTATGTTAAACCATGTACTTAATATTTTATTCTT [XGTACX_site3761]	11.2 ± 0.69
CACATACATATATATACACACAAATATATATACACA [CACACA_site8164]	10.1 ± 0.2
GATATAAAATATTGGTGTACTTTTTTTTTTTTTTTT [XGTACX_site7174]	11.5 ± 0.85
GTATGTGTGTCAAGTCGTACTTACCTTTAAATTTTT [XGTACX_site2507]	11.2 ± 0.56

Sequence	gcPBM binding intensity (ln)
TTACCGTAAAAATTTTGTACATAAAATAATATATAA [XGTACX_site532]	11 ± 0.61
TTTTTTTGTTTTGTTTTTTTTTTTTTTTTTTTTTTG [CACACA_negctrl_site570]	9.64 ± 0.014
ACCATGAAAATATTATGTACATATGTATTATATATA [XGTACX_site408]	11.3 ± 0.8
GAGTGAGCTAATAAAAGTACGTAATAAACAAACGCA [XGTACX_site131]	11.2 ± 0.91
ATAGCTGTATTTAATACACACAAAACTTTCATTCCA [CACACA_site5868]	10.02 ± 0.028
TTTTTATATTTTTGCACACATTCTTTACTCTTCAAA [CACACA_site2210]	10.2 ± 0.13
TATATATATGGACACACACACATATAAATAAATAAA [CACACA_site4406]	10.9 ± 0.6
TTAAAAAAAAAACACACACACATACACATATATATA [CACACA_site3299]	9.985 ± 0.092
TTTTTTTTTTTTTTTTTTTCTATTTTACTGTTTCGT [CACACA_negctrl_site850]	9.54 ± 0.34
ATAATTAATAAATAATGTACATATATATTATATTTT [XGTACX_site8546]	11.1 ± 0.6
TGTGAAGTACCGAATGTGCACTGTGTGTGTTCTTTT [GTGCAC_site9613]	10.9 ± 0.42
TACTATAAGATATATACACACAAGAAATACAAAACG [CACACA_site6764]	10.2 ± 0.2
ATGATTATTTTAAAAAGTACTAATTATTATTTTTTT [XGTACX_site7242]	10.9 ± 0.69
GAATATGAATATTTGCGTACTTATATAACTGTTCTA [XGTACX_site883]	11.3 ± 0.54
AAAAAAAATAATAATACACACAATATGATATGTACA [CACACA_site850]	10.4 ± 0.17
ATACACATTCGAAATAACAAAAAAATACATACACAT [GTGCAC_negctrl_site628]	10.2 ± 0.13
TTAATACATATATATATATTATATATATATATATAT [TGCATGCA_negctrl_site177]	9.69 ± 0.39
ATATATGTATATTTTTGTACGCATAAATATATTTTT [XGTACX_site827]	11.3 ± 0.83
TTTTTATACAATTAGACACACACAAAAAGTATATAT [CACACA_site8272]	10.3 ± 0.18
TGCTTAATTTACGTGGGTACATACACCTCATATATT [XGTACX_site3093]	11.3 ± 0.82
CCCTTTTATTAAAATTCACACACATAAATTTTTATA [CACACA_site8611]	10.1 ± 0.19
ATTATTTTAATTTTAATTTTTTTTTTTTTTTGTTTT [CACACA_negctrl_site1063]	9.39 ± 0.085

Sequence	gcPBM binding intensity (ln)
TATTTTTCCATAAAAATTTATATAGAAACAAATAAT [GTGCAC_negctrl_site103]	10.1 ± 0.33
TATATGCATATACATACACACATAACACATACGTTT [CACACA_site3832]	10.04 ± 0.021
TTTCTAATTCTTAGTGGTACACAGTTCTGCTGATAT [XGTACX_site2391]	11.4 ± 0.96
ATATGTCACTTGTATACACACATATAGATTTCAATC [CACACA_site7519]	10.2 ± 0.2
AAGCTATATATAGGCAGTACTTTGTAAGTGTAGATA [XGTACX_site8365]	10.6 ± 0.34
AAAAAAAAAAAAAAAACACACAGAACAATATATAAA [CACACA_site4698]	10.3 ± 0.18
TATTTGTTGTGAGTCACACATATATATATATATATA [CACACA_site4240]	10.4 ± 0.57
ATATTGTAAGTAAACACACACACATATATATGTATA [CACACA_site8124]	9.955 ± 0.035
AAAATATCTTATATATGTACATATTTATATTTATAT [XGTACX_site6027]	11.1 ± 0.64
TTTTCATAAAATCATTGTACATTTATCGTATATTAA [XGTACX_site3855]	10.8 ± 0.58
TATAAACACCCATATAAACACACATATAAACCAACA [CACACA_site8790]	10.2 ± 0.23
ATACGCACACATATATGTACATATTGTATATATATA [XGTACX_site3962]	11.2 ± 0.71
GACAAAAAATTAAAATAAAATAATAATATAATAAAA [GTGCAC_negctrl_site234]	9.49 ± 0.11
ATATAATAGTTATATTGTACATAAATTATACACCTT [XGTACX_site628]	11 ± 0.5
AAGGTAGAAATATGTTGTACGGTTTGGAGGAAGCAA [XGTACX_site1105]	10.7 ± 0.5
GCATCGATCAAACATACACACATGGTTAATAAAAAT [CACACA_site8651]	10.3 ± 0.29
TGTTTTATTTTATTAGTGCATTTTTATTTATAATAG [GTGCAC_site9453]	9.97 ± 0.13
ACATATATATTCATATGTACATATACATACATACAT [XGTACX_site4563]	11.3 ± 0.64
ACAATTTACACTTAAACACACAAAAAAAAATTATAT [CACACA_site2065]	10.06 ± 0.057
TTATAAATGTAACGATGTACTTTTAAAAGTTTCCTT [XGTACX_site109]	11.2 ± 0.72
AATATATGTATATATTTTTTTTTTTCCCTTACAAAT [GTGCAC_negctrl_site428]	9.725 ± 0.049
GTTAAAATTGGGGACGCATGTTCCTTTCCTTTTTTT [TGCATGCA_site1002]	10.8 ± 0.57
